Test results: the supplement of paper PMC10126150
Values marked as one replicate rest on one cluster of the flow cell; about a third of the high ones do not repeat.

Tested on: ATP
Test: switch fluorescence ratio, 500 uM ATP over buffer (Cy3 cluster intensity, sum of 5 cycles each) (fold (ratio)); higher = stronger signal-on switching upon ATP binding; sequences stand for … in TCGTCGGCAGCGTCAGATGTGTATAAGAGACAGTTTTTTTTTTTTTTTTTTTTTTTTT…TC
Conditions: aptamer strand: ATP DNA aptamer (quencher-CACCTGGGGGAGTATTGCGGAGGAAGG + anchor), 100 nM annealed; ATP concentration: 500 uM; one replicate
Method in brief: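 Cy3-labelled switching-strand clusters on a modified Illumina MiSeq flow-cell were annealed to 100 nM quencher-labelled ATP aptamer, imaged in selection buffer, then imaged after 15 min with 500 uM ATP at 22 °C. Five buffer/ATP cycles ran, with NaOH stripping and re-annealing between them. The fluorescence ratio is summed target-cycle over summed buffer-cycle Cy3 intensity per cluster, averaged per switch-domain sequence. Clusters outside 100-1000 RFU were excluded.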
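Further: ATP exposure 15 min at 22 °C before imaging.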

Sequence | switch fluorescence ratio
ATCGGATAAA | 1.08
AGAGAGCGTC | 0.925
AGGATATCAC | 1.01
TTAGTATCTG | 1.01
AAAGTGTAAC | 1
CAGGCTGCA | 1.01
TACACTTAG | 1.06
GACTATGCCC | 1.07
CAAGTGTCGC | 1.01
GATCTACT | 1.03
TCCGTAGGTA | 1.05
CAGTACATTT | 1.04
CGCGTCGGGC | 0.999
TTGGAGCTCT | 0.959
CGCCTCCAAT | 1.49
ATAAGTAGCT | 1.03
ATGCTAGTT | 1.02
GTACTATGGC | 0.994
AGTTCTGCTT | 1.06
CGATAGGTTG | 0.938
AGGTCAGAAG | 0.968
AATCGAACT | 1.01
TAAGGACTGC | 1.04

Sequence | switch fluorescence ratio
AGATAGGATT | 1.01
TTTAGAATTC | 0.99
CGGGTAGCTG | 1.04
TCGTCGTTGA | 1
TTGCCGCATT | 1.06
TCCGGGTACG | 1.27
AAGCGTACGT | 0.976
CTGACCGTCC | 1.65
TTCACATTAG | 1.05
TGGCCGGGAC | 1.03
GTAAGCGCGT | 0.996
CGGGAAGCT | 1.02
GACCGATTTG | 1.01
TTTGGTTAAC | 1.04
GGTCACTTT | 0.993
TTCGTAGAT | 1.03
TTATGGGATG | 0.985
TTCAAGTATT | 1.03
AATAGGCGAT | 0.989
ACACTATGTT | 1.04
TGCAGGCTGA | 0.944
CGGACATCTA | 1.08
GGTTTCAAA | 1.01

Sequence | switch fluorescence ratio
GAGATTTAA | 0.991
GACTCCCTAG | 0.99
TTCCCAATGT | 4.37
TAGAGATTCA | 0.998
CATTATAGAG | 0.959
CTCCCGGGCA | 1.09
TGAAATTGCG | 0.987
AGGGGCAACC | 1.12
CGACAAATT | 1.06
GGTTCTCAT | 1.01
GCAGGTGTCA | 1.27
CCTCGATGGG | 1.03
TAATCACTCG | 1
GGGGATCATG | 1.03
GCCCGGGTAG | 1.09
TGGATACTCG | 1.11
GTGGGTTATG | 0.985
TAAGTAAGGC | 1.02
TACGTGGGAG | 1.02
TTATTGCTGG | 0.972
AAGCCGCGTC | 3.55
TGGGATAGCC | 1.07
ATTAAAGATG | 0.991

Sequence | switch fluorescence ratio
ATAAGGAGG | 0.957
CGCGTCGTCC | 1.03
AGATCCGCCT | 1.06
ACTATTAGGT | 1.03
CCAATCAGAC | 1.1
TTCGGATTGT | 1.02
CCTCTGCTCG | 3.45
AACTGGCCAT | 1.04
CGTTGCTTAC | 2.29
ATAATAGAAG | 0.973
AGAGAGTCTG | 1.14
TGTGATCGTT | 0.995
TGTGAAAACT | 1.04
GTGGCCCGTG | 1.03
ATTGCATTCT | 0.977
CGACTACTAT | 1.07
CTCGGCCCTC | 1.26
GACGTCCGTT | 0.989
TCTGGCTACT | 1.08
ATCTCTTAGA | 0.977
CAGGGTCCAA | 1
GTGAAAAAAT | 0.992
GCTCCGGCGT | 1.38

Sequence | switch fluorescence ratio
TCAAGGAGGA | 0.977
CTCATCTACT | 1.06
ATTACATACA | 1.39
ACCGGCGCTT | 1.28
TTAGAAGGAA | 0.969
TGGTTTGACA | 0.925
ATGTCAGCCC | 0.946
ATGCAGTTGA | 0.97
ATGATCTCAC | 0.986
TTTGTTCATA | 0.921
AGCGGGTGGC | 1.04
TCTGCAGGGA | 1.07
TACTTCTACG | 1.16
CATACAATCC | 1.08
CAACGTCCAG | 1.04
ACGTAAGACT | 1.72
GGATATGTCT | 0.961
AAGGTAACTT | 1.01
GGTGCGTCCC | 0.982
GGGGAGCG | 0.922
TCCCGAGTAT | 1.01
ATGTCGCATG | 1.04
TATGCTTCGG | 0.967

Sequence | switch fluorescence ratio
ATCACTGAGG | 0.999
AAACGGAAGG | 0.993
CGGAAAAGGA | 1.06
TGGCAGGTCC | 1.24
TAAGTATCTC | 0.984
GGGTCCCGTT | 1.02
GTTTCAGTAT | 1.02
CACTCTATGT | 1.05
GTAAGGACCT | 1.05
AATCGGACTA | 0.94
AACTGAAATC | 1.04
AATTCTCGTG | 1.03
TATGATTGT | 1.01
CCGCTACGGA | 1.56
CGCAGGGCGA | 1.02
ATCACCAGAA | 1.01
AATTGGCATA | 1.02
GGGTTTGGG | 1
CGTGGAG | 1
AAGGTCGTTC | 1.01
GAGCTGCCCC | 1.04
CTTGTATAAA | 0.998
ACTACTACCT | 1.31

Sequence | switch fluorescence ratio
ACATGATTG | 1.03
TTCTTTTCCT | 1.19
GAAACGAGGG | 1.02
CTCGTATGTC | 1.06
AGAGGAAAGC | 1.01
TTGGACGCAA | 1.38
TAAAGCTGG | 1.01
GATCTAGTAC | 1.03
GGTATCTCCG | 1.04
TATGGCCCTT | 1.04
TTCGAATAAA | 1.01
CTTACCTTC | 1
TAGTTTTGT | 1.03
ACTAGAAGTG | 1.01
TAACCTGAAA | 1.13
GAATGCCTGG | 0.974
CCGGGTCCGT | 1.41
TTTTATCGG | 0.997
ATGGGAGCGT | 1.02
TCAGACAAGG | 1.03
